{"source": "paper PMC7819943", "about": "“Rice protein-binding microarrays: a tool to detect cis-acting elements near promoter regions in rice”", "note": "This is one part of the list.", "data": [{"biological_target": "T1, OsWOX13 (Oryza sativa, UniProt Q5QMM3 1-267)", "T1 sequence": "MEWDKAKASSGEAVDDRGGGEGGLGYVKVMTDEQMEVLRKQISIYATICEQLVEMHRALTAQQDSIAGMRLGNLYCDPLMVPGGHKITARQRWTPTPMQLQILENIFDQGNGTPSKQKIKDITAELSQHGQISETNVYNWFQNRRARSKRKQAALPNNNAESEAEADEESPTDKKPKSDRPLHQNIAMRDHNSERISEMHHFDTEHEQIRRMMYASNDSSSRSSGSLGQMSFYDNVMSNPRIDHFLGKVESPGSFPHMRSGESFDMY", "test": "protein-binding microarray (RPBM); PBS, 2% BSA, 51.3 ng/ul salmon testes DNA, 50 uM zinc acetate, 200 nM TF, 25 C, 1 h; high values mean tight binding", "settings": "protein: recombinant; tags: N-terminal polyhistidine and DsRed monomer fusion (pET32a); label: CyDye5-dUTP incorporated in the synthesized complementary strand; 3' TTTTT single-stranded linker to array surface; dsDNA, one strand shown", "summary_of_the_method": "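Ni–NTA purification followed expression in E. coli BL21-CodonPlus of transcription factors fused N-terminally to a polyhistidine tag and DsRed. At 200 nM in PBS with 2% BSA, salmon testes DNA and 50 µM zinc acetate, the protein was incubated for 1 h at 25 °C with a custom Agilent array that had been primer-extended with Cy5-dUTP and blocked with 2% BSA. After washing, the array was read on an Axon 4000B scanner. The binding signal is per-feature fluorescence intensity in arbitrary units.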", "values": [{"sequence": "ATTTGATCCAAATTATATGGTTATTAATCAAATCCCATAGCGGAGTCACCTAGTGCAG", "binding signal": "10200 fluorescence intensity (a.u.)"}, {"sequence": "TATTAGAAATAATTATCATGAAAGGCATAATCTCCTCGAACGGAGTCACCTAGTGCAG", "binding signal": "3800 fluorescence intensity (a.u.)"}, {"sequence": "TCCAATGATTGTGTGATAATAGGAGCATATAATCCCAGATCGGAGTCACCTAGTGCAG", "binding signal": "35100 fluorescence intensity (a.u.)"}, {"sequence": "GGGAGATAATGAGAAGATTTTGTGGTTTCTTTTGGTGCCCCGGAGTCACCTAGTGCAG", "binding signal": "3770 fluorescence intensity (a.u.)"}, {"sequence": "GATATTGATTTGGTCATCAACCTCAAACTCCGAGAAGAGGCGGAGTCACCTAGTGCAG", "binding signal": "32600 fluorescence intensity (a.u.)"}, {"sequence": "ACGAATCTTTTAAGCCTAATTAATCCGTCATTAGCACATGCGGAGTCACCTAGTGCAG", "binding signal": "3560 fluorescence intensity (a.u.)"}, {"sequence": "CAGATTAACGTTAATATAGGAGTAGTTAAATAATGCATTTCGGAGTCACCTAGTGCAG", "binding signal": "10600 fluorescence intensity (a.u.)"}, {"sequence": "TATAACAAATGAATGAATTTGATGTATATTTGGTTTGGAACGGAGTCACCTAGTGCAG", "binding signal": "7530 fluorescence intensity (a.u.)"}, {"sequence": "TAATTTGCATTCATCACTGCTGATTGAGACGGTGACAACTCGGAGTCACCTAGTGCAG", "binding signal": "24600 fluorescence intensity (a.u.)"}, {"sequence": "TAAGATAATATAGATAGATGGATAAATACATCAGGAGTCTCGGAGTCACCTAGTGCAG", "binding signal": "9040 fluorescence intensity (a.u.)"}, {"sequence": "CACGGTAATTACTACTACCACTACAGCAGCAGCCAAAACCCGGAGTCACCTAGTGCAG", "binding signal": "18200 fluorescence intensity (a.u.)"}, {"sequence": "CCCATAATTTCACCACCAAACACATCCATGTGCATTGGAACGGAGTCACCTAGTGCAG", "binding signal": "6210 fluorescence intensity (a.u.)"}, {"sequence": "TTCCACTAATTAATCAGGTACTGTGTGATGATCGTGTTGACGGAGTCACCTAGTGCAG", "binding signal": "20100 fluorescence intensity (a.u.)"}, {"sequence": "CGCATTTAATTAATTTAGCTTGCATTTCAATTCAAATTTACGGAGTCACCTAGTGCAG", "binding signal": "20400 fluorescence intensity (a.u.)"}, {"sequence": "ATTAACTTGAAGTATATATTGATTTGTTACCCCGCTAGGCCGGAGTCACCTAGTGCAG", "binding signal": "9740 fluorescence intensity (a.u.)"}, {"sequence": "TTATTTAACTACATTAAATTGTTGATCATGCTAGTTATTACGGAGTCACCTAGTGCAG", "binding signal": "7560 fluorescence intensity (a.u.)"}, {"sequence": "TACCATATCTTGGCCGTTGATTAGATGCAATCTAACGGCTCGGAGTCACCTAGTGCAG", "binding signal": "4580 fluorescence intensity (a.u.)"}, {"sequence": "TTGATAAATTATATGGTACGATTTATTTAAAGTTGCGTGCCGGAGTCACCTAGTGCAG", "binding signal": "25000 fluorescence intensity (a.u.)"}, {"sequence": "GGCCGTTAATTTGCCGTCAAGGAGCCACCATGGCACGAGACGGAGTCACCTAGTGCAG", "binding signal": "14600 fluorescence intensity (a.u.)"}, {"sequence": "TTTGTTATAATTGATATTTAATTAATCATATGGTAATTACCGGAGTCACCTAGTGCAG", "binding signal": "27800 fluorescence intensity (a.u.)"}, {"sequence": "TATATTGATGATTACTTTCTGATGCAATTGGCTGTGCAGTCGGAGTCACCTAGTGCAG", "binding signal": "40500 fluorescence intensity (a.u.)"}, {"sequence": "TCTTGATTATCGGTGTGGCAGTGGCAGTTCAGTGGCACTGCGGAGTCACCTAGTGCAG", "binding signal": "14700 fluorescence intensity (a.u.)"}, {"sequence": "AGAAATTTATCGACTACATTGATTTGGATCGATGTTGAAGCGGAGTCACCTAGTGCAG", "binding signal": "11500 fluorescence intensity (a.u.)"}, {"sequence": "TAATAATAATAATAATGCAAATTACCAAAATATAAGCCCACGGAGTCACCTAGTGCAG", "binding signal": "6280 fluorescence intensity (a.u.)"}, {"sequence": "TCCTCTCTTGATTATGTGGGTCTCGTTTTCTCTTACACTGCGGAGTCACCTAGTGCAG", "binding signal": "10300 fluorescence intensity (a.u.)"}, {"sequence": "GATTACAGACTGACAGTTAAATTGGTTCGCTAAGTGTGATCGGAGTCACCTAGTGCAG", "binding signal": "24100 fluorescence intensity (a.u.)"}, {"sequence": "CACTTACTGACGTAAACAGCAGAATATTTCCTGTGTATTGCGGAGTCACCTAGTGCAG", "binding signal": "3970 fluorescence intensity (a.u.)"}, {"sequence": "AAAGATTGGGTCAGGCTTGAGTGTTTGTTCCAACGATTCGCGGAGTCACCTAGTGCAG", "binding signal": "6630 fluorescence intensity (a.u.)"}, {"sequence": "ATCATAACTCCATCAGATAATTTGTGCAGAACGGCAGAACCGGAGTCACCTAGTGCAG", "binding signal": "5500 fluorescence intensity (a.u.)"}, {"sequence": "CACTCAAATTAGCATAATCAACTCCGTAGACAAGCAGGCACGGAGTCACCTAGTGCAG", "binding signal": "31400 fluorescence intensity (a.u.)"}, {"sequence": "CTATGATGTTCTATTCAATTATTTTGTTTGTTCTTGTTATCGGAGTCACCTAGTGCAG", "binding signal": "3910 fluorescence intensity (a.u.)"}, {"sequence": "TTTAATGGAGAAGATGCCATAGTTAATTGCATGCTTGCATCGGAGTCACCTAGTGCAG", "binding signal": "14600 fluorescence intensity (a.u.)"}, {"sequence": "AAAGTCAAAATTTGATTGCAGTATAGCTCTGACCTGAAATCGGAGTCACCTAGTGCAG", "binding signal": "6520 fluorescence intensity (a.u.)"}, {"sequence": "ATTAATTTTCTTGTAATATTACTCCCTCCATTCCATAATACGGAGTCACCTAGTGCAG", "binding signal": "11300 fluorescence intensity (a.u.)"}, {"sequence": "ATTGACATTAATGATTAATTGCTAGTGCCCAACCAAAACACGGAGTCACCTAGTGCAG", "binding signal": "34600 fluorescence intensity (a.u.)"}, {"sequence": "TGAAAATTTAGGCTAAATTTCTGGGCGTGACACTAGCCCACGGAGTCACCTAGTGCAG", "binding signal": "13400 fluorescence intensity (a.u.)"}, {"sequence": "GTAATTGACAACTGACAACCGACAGTTATTGACTCATTCCCGGAGTCACCTAGTGCAG", "binding signal": "54900 fluorescence intensity (a.u.)"}, {"sequence": "AAACTATTTATATAAATTATATGTAATAACCTGCTGATTACGGAGTCACCTAGTGCAG", "binding signal": "8500 fluorescence intensity (a.u.)"}, {"sequence": "TTATGTCAATCAAATGTAACCTTAATTCTTCATATTGTTTCGGAGTCACCTAGTGCAG", "binding signal": "12900 fluorescence intensity (a.u.)"}, {"sequence": "GAACTGATGATCAGCTCGGTGACAATAATTTCAGCAAAGGCGGAGTCACCTAGTGCAG", "binding signal": "3260 fluorescence intensity (a.u.)"}, {"sequence": "AAATCTGATTTGCCATTGATAACATGAAAGCTCAAGAGCTCGGAGTCACCTAGTGCAG", "binding signal": "16400 fluorescence intensity (a.u.)"}, {"sequence": "ATGTTAACAGAACAATATATACTATCATGGAACACTAGAACGGAGTCACCTAGTGCAG", "binding signal": "4610 fluorescence intensity (a.u.)"}]}]}
